Test results as given in publication PMC4336329 (PLoS ONE, 2015).
Out of some 310,000 compounds screened, about 2,200 (0.71%) showed an effect of 50% or more. The effect is printed as a negative number. This is one part of the list.

The compounds below were run against human ether-à-go-go-related gene (hERG) potassium channel (human, UniProt Q12809) (assay: primary screen, population patch clamp on CHO cells stably expressing hERG).
Sequence of human ether-à-go-go-related gene (hERG) potassium channel (Q12809 whole entry, looked up): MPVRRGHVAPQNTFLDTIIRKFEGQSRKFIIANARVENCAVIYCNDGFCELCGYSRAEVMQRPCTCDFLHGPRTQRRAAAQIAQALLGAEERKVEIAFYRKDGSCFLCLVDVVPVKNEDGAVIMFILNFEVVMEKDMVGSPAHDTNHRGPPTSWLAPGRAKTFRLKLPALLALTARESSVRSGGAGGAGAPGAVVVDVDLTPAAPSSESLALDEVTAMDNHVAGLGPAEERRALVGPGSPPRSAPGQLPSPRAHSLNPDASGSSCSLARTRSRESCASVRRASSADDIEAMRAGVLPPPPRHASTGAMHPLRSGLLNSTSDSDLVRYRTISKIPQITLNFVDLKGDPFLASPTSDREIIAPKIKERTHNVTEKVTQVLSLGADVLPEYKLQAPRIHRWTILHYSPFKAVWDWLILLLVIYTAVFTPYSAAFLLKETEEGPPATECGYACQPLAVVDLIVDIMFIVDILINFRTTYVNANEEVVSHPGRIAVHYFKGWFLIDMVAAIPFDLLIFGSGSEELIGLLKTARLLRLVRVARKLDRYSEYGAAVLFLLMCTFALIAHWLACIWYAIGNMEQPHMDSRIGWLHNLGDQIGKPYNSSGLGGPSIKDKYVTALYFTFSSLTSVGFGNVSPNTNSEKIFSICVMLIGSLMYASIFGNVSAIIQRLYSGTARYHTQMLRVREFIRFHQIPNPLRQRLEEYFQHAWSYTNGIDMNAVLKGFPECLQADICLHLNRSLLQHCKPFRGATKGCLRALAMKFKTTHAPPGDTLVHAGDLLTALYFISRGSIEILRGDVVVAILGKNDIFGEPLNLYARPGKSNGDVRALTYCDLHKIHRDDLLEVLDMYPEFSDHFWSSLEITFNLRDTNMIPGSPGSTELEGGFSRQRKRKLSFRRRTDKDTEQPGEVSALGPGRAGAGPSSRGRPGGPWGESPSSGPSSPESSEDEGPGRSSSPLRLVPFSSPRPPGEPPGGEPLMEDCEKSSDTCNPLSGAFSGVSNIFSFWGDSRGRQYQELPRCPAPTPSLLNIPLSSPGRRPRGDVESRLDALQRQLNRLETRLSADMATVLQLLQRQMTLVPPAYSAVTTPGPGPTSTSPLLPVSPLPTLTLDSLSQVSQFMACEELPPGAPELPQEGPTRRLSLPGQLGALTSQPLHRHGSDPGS

| SMILES | hERG current change (%, negative = inhibition) at 1uM |
| --- | --- |
| COc1cccc(NC(=O)Nc2cccc(C(=O)O)c2)c1 | 16.4% |
| CCC(C)(C)NC(=O)C(c1cccc(OC)c1OC)N(CC(C)C)C(=O)CCC(=O)Nc1cc(C)on1 (stereo not drawn) | 2.68% |
| COc1cccc(CCC(=O)Nc2cc3c(cc2C(=O)O)OCCCO3)c1OC | 8.98% |
| COC(=O)c1cc(OCC(=O)NC2CCCc3ccccc32)cc(C(=O)OC)c1 (stereo not drawn) | 9.79% |
| COc1ccc(-c2csc(NC(=O)c3ccc(C(C)(C)C)cc3)c2C(=O)O)cc1 | 16.3% |
| NC(=O)c1c(NC(=O)CN2CCCC2)sc2c1CCCC2 | 7.12% |
| CCOC(=O)c1ccc(NC(=O)Nc2c(C)n(C)n(-c3ccccc3)c2=O)cc1 | 6.5% |
| CCOc1ccc(C(=O)NC(C(=O)NCCc2ccc(S(N)(=O)=O)cc2)C(C)C)cc1 (stereo not drawn) | 6.18% |
| Cn1c(N)c(C(=O)COC(=O)/C=C/c2ccccc2Cl)c(=O)n(C)c1=O | 6.57% |
| COc1ccc2oc(C(=O)N(C)CCOc3ccccc3)c(C)c2c1 | 6.38% |
| CN(Cc1ccccc1)C(=O)c1cccc(NC(=O)c2ccco2)c1 | -0.649% |
| O=C(NC1C2CC3CC(C2)CC1C3)c1ccc(N2CCNCC2)c([N+](=O)[O-])c1 (stereo not drawn) | 9.62% |
| Cc1c(C(=O)NC2CCN(Cc3ccccc3)C2)oc2ccc(Br)cc12 (stereo not drawn) | 13.5% |
| CC(/C=C1\SC(=S)N(NC(=O)c2cccc(O)c2)C1=O)=C\c1ccccc1 | 13.6% |
| CCOc1ccc(C(=O)NCCC2=CCCCC2)cc1OCC | 9.23% |
| O=C(c1ccccc1NS(=O)(=O)c1cccc2cccnc12)N1CCOCC1 | 6.18% |
| Cc1cc(C)c(C)c(S(=O)(=O)N2CCN(c3ncnc4sc(C)c(C)c34)CC2)c1C | 11.8% |
| Cn1c(=O)c2c(nc(SCCN3CCCCC3)n2Cc2ccc(Cl)cc2)n(C)c1=O | -48.9% |
| COc1ccccc1NC(=O)c1ccc(NC(=O)CSc2n[nH]c(N)n2)cc1 | 7.54% |
| CCCc1cc(C(=O)OCC(=O)N(CCC)c2c(N)n(Cc3ccccc3)c(=O)[nH]c2=O)sc1C | 1.93% |
| CCOc1ccc(C(=O)OCC(=O)NCCCc2ccccc2)cc1 | 6.02% |

| SMILES | hERG current change (%, negative = inhibition) at 1uM |
| --- | --- |
| Cc1cc([N+](=O)[O-])nn1CC(=O)Nc1cccc2nonc12 | 9.31% |
| COc1cc(/C=C/C(=O)c2c(O)n(CCc3ccccc3)c(=O)[nH]c2=O)ccc1O | 16.7% |
| COc1cccc(C(=O)NCCS(=O)(=O)N2CCC(C)CC2)c1 | 3.89% |
| O=C(NCc1ccc2c(c1)OCO2)c1ccc2c(c1)OCCO2 | 10.5% |
| NC(=O)c1cc(S(=O)(=O)N2CC=C(c3ccccc3)CC2)cs1 | -9.46% |
| CCSC(C)CC1CC(=O)CC(=O)C1 (stereo not drawn) | -5.77% |
| C/C(=N\OC(=O)c1ccc(F)cc1)c1ccc(F)c(F)c1 | 13.1% |
| Cc1oc2c(c(C)cc3oc(=O)c(CC(=O)N[C@H](C(=O)O)C(C)C)c(C)c32)c1C | 12.6% |
| Cc1oc2c(C)c3oc(=O)c(CC(=O)N[C@@H](CC(C)C)C(=O)N[C@@H](Cc4ccccc4)C(=O)O)c(C)c3cc2c1C | 12.6% |
| COCCn1c(C)cc(C(=O)COC(=O)/C=C/c2cccc(OC)c2)c1C | 5.98% |
| Cc1noc(C)c1COC(=O)CCCc1nc2ccccc2s1 | -3.79% |
| O=S1(=O)CCOC[C@H](CC2CCCCC2)N1Cc1ccc(F)cc1 | 1.91% |
| CCN1C/C(=N\S(=O)(=O)/N=C2\CN(CC)C(=O)N2CC)N(CC)C1=O | 14.6% |
| O=C(Nc1nccs1)c1ccc(CSc2ccccc2)o1 | -0.64% |
| O=S(=O)(c1ccc(-c2ccon2)s1)N1CCN(CCN2CCOCC2)CC1 | 16.1% |
| COc1ccc(C2c3c(oc4ccccc4c3=O)C(=O)N2c2ccccn2)cc1 (stereo not drawn) | 7.17% |
| O=C(Cn1cnc2ccccc2c1=O)c1c[nH]c2ccccc12 | 6.38% |
| COc1ccc(N=C2SC(C(=O)Nc3ccc(C(=O)O)cc3)CC(=O)N2Cc2cccs2)cc1 (stereo not drawn) | 12.1% |
| COc1cc(C(=O)OCC(=O)NC(N)=O)cc(CN2C(=O)c3ccccc3C2=O)c1OC | 8.8% |
| CC(C)N(C(=O)CSc1nnnn1-c1ccc2c(c1)OCO2)C(C)C | 10.6% |
| Cc1ccc(SCC(=O)Nc2cccc(C(=O)NC(C)(C)C)c2)cc1 | 12.4% |

| SMILES | hERG current change (%, negative = inhibition) at 1uM |
| --- | --- |
| CCC(/C=N/Nc1ccc(S(=O)(=O)N2CCCC2)cc1[N+](=O)[O-])CC | 7.74% |
| Cc1ccc(C)c(C(=O)OCC(=O)N(C)c2ccccc2)c1 | 12.2% |
| O=C(COC(=O)c1cccc2ccccc12)NCC1CCCO1 (stereo not drawn) | 11.6% |
| CC(NC(=O)c1c(O)c2ccccc2n(C)c1=O)c1ccccc1 (stereo not drawn) | 6.56% |
| CC[C@H](C)[C@H]1O[C@]2(CC[C@@H]1C)C[C@@H]1C[C@@H](CC=C(C)[C@@H](O[C@H]3C[C@H](OC)[C@@H](O[C@H]4C[C@H](OC)[C@@H](O)[C@H](C)O4)[C@H](C)O3)[C@@H](C)C=CC=C3CO[C@@H]4[C@H](O)C(C)=C[C@@H](C(=O)O1)[C@]34O)O2 | 5.97% |
| O=C1NC(Cc2ccccc2)C(=O)Nc2ccc(Br)cc21 (stereo not drawn) | 5.81% |
| O=c1[nH]c(O)c(/C=C2/C=CC(c3cc(Cl)ccc3Cl)=N2)c(=O)[nH]1 | 11.9% |
| Cn1c2ccccc2c(=O)c2ccc(C#Cc3ccccn3)cc21 | 12.3% |
| CCc1nc2ccccc2c(NC(=O)CN2CC(C)CC(C)C2)c1C (stereo not drawn) | 8% |
| COc1ccccc1NC(=O)C(=O)N(c1cccnc1)C(C(=O)NC(C)(C)C)c1ccccc1F (stereo not drawn) | 17% |
| S=C(Nc1ccc(Cl)cc1)N1CCN(Cc2ccccc2)CC1 | 11.1% |
| CCOC(=O)c1cc2c(=O)n3cccc(C)c3nc2n(Cc2ccco2)c1=NC(=O)c1ccccc1 | 0.671% |
| Cc1ccc(NC(=O)N[C@@H](CC(C)C)C(=O)O)c(C)c1 | 17.7% |
| CN1C(=O)C(O)(CC(=O)c2cccc(-n3cccc3)c2)c2ccccc21 (stereo not drawn) | 6.67% |
| Cc1ccc(-c2cc(C(F)F)nc(S(C)(=O)=O)n2)cc1 | 5.34% |
| Cc1ccccc1C(=O)NC(CC(C)C)C(=O)Nc1ccc(S(N)(=O)=O)cc1 (stereo not drawn) | 14.5% |
| O=C(NCc1ccccc1)C1=C[C@H](c2ccc(C(F)(F)F)cc2)C[C@H](OCc2ccc(CO)cc2)O1 | 14.3% |
| CCOC(=O)c1cccc(NC(=O)CCc2nc(-c3ccccc3F)no2)c1 | 5.83% |
| COC(=O)C(CCSC)NC(=O)/C=C/c1ccc(OC)cc1 (stereo not drawn) | 13.1% |
| CC(NC1CCN(Cc2ccccc2)CC1)c1ccc(F)cc1 (stereo not drawn) | 16.2% |
| COc1ccc(NC(=O)c2ccc(CN3CCN(c4ccccc4)CC3)cc2)cc1 | 3.45% |

| SMILES | hERG current change (%, negative = inhibition) at 1uM |
| --- | --- |
| COc1ccc(NC(=O)C2CCC(C(C)(C)C)CC2)cc1S(=O)(=O)N1CCCCC1 (stereo not drawn) | 7.25% |
| COc1ccc(C2Oc3ccccc3N2C(C)=O)cc1 (stereo not drawn) | -3.32% |
| CN(CC(=O)Nc1ccc(F)cc1)C(=O)c1ccc(N2C(=O)CCC2=O)cc1 | -0.164% |
| O=C(NCc1ccco1)c1ccccc1O | 13.7% |
| O=C(COC(=O)c1ccccc1-n1cnnn1)c1ccc(F)cc1 | -1.13% |
| Cc1cc(C)c2ccc3c(C)c(C)nc3c2[nH]1 | 7.15% |
| Cc1cc(C)c(S(=O)(=O)NCCSCc2ccco2)c(C)c1 | 14.6% |
| CCOc1ccccc1N | 7.5% |
| COc1ccc(-n2c(SCCC#N)nnc2-c2cc(Cl)ccc2OC)cc1Cl | 16% |
| O=C(c1cc2cc(F)ccc2[nH]1)N1CCC2(CC1)OCCO2 | 9.92% |
| COP(=O)(OC)C(Nc1ccccn1)c1ccccc1 (stereo not drawn) | 22.7% |
| O=C(CSc1nnc(CNC(=O)c2c(F)cccc2Cl)o1)NCc1ccc2c(c1)OCO2 | -18.9% |
| CCCCC(CC)C(=O)Nc1cc(=O)[nH]c2nc3ccccc3n12 (stereo not drawn) | 13.2% |
| O=C(NCc1ccc(C(=O)O)cc1)OCc1ccccc1 | 8.25% |
| O=C(CSCc1cnn(-c2ccccc2)c1-n1cccc1)NCCN1CCOCC1 | 1.44% |
| Cc1ccc(OCC(=O)NC2CCCC(C)C2C)c([N+](=O)[O-])n1 (stereo not drawn) | 18.3% |
| COc1ccc2cc3c(N)c(C(=O)N4CCCC4)sc3nc2c1 | -9.27% |
| CC(C)c1ccc(-n2cnn(-c3ncccc3[N+](=O)[O-])c2=O)cc1 | 3.95% |
| CCOc1cc2[nH]c(=O)n(CCCCC(=O)N3CCCCCC3)c(=O)c2cc1OCC | 8.63% |
| CN(C)CCSc1nc(O)c(-c2ccccc2)c(=O)n1-c1ccccc1 | 10.6% |
| N#Cc1cn(CC(=O)N2CCCc3ccccc32)c2ccccc12 | 4.08% |
